Values marked as one replicate rest on one cluster of the flow cell; about a third of the high ones do not repeat.
Test system: ATP
Test: switch fluorescence ratio, 500 uM ATP over buffer (Cy3 cluster intensity, sum of 5 cycles each) (fold (ratio)); higher = stronger signal-on switching upon ATP binding; sequences stand for … in TCGTCGGCAGCGTCAGATGTGTATAAGAGACAGTTTTTTTTTTTTTTTTTTTTTTTTT…TC
Settings: aptamer strand: ATP DNA aptamer (quencher-CACCTGGGGGAGTATTGCGGAGGAAGG + anchor), 100 nM annealed; ATP concentration: 500 uM; one replicate
How it was run: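 After annealing to 100 nM quencher-labelled ATP aptamer, Cy3-labelled switching-strand clusters on a modified Illumina MiSeq flow-cell were imaged in selection buffer. A second image followed after 15 min with 500 uM ATP at 22 °C, and five such buffer/ATP cycles were done, each separated by NaOH stripping and re-annealing. The fluorescence ratio, averaged per switch-domain sequence, is summed target-cycle over summed buffer-cycle Cy3 intensity per cluster, with clusters outside 100-1000 RFU excluded.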
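Also: ATP exposure 15 min at 22 °C before imaging.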

Sequence	switch fluorescence ratio
TCCTTAGGGA	0.987
ACTCGCGCGT	1.03
AGTCAACTCA	1
GGCTCCTA	1.03
ATATGGACAT	1.05
TGGCGTGATG	0.952
CCATGCCTGT	0.967
GCAAGCATAT	1.11
ACCAATTAC	1.46
TTCCTAAATA	0.968
ACCCCACCGA	1.37
ATCAAAGTGG	0.994
GGGTAGTCCA	1.02
CCCGCGGGCA	1.01
CTCAGACGAC	1.42
GAATCTCCGA	0.983
CTCGCTTGGT	1.01
AGTCGTACGC	1
AAATCCATGG	0.999
GAAAGTTCCG	0.986
CTTAATACAA	0.994
ATTTATTGTT	0.997

Sequence	switch fluorescence ratio
CTGGATGCTC	1.16
ACTGTAATTG	1.18
CTAAAGTCTG	0.957
TTGTACCGG	0.964
GGAGCTTGA	1.39
TGGTTGGTCG	1.01
GGGTGAGACA	0.917
TGCCTCAACG	1.06
CGGGGCTACG	1.01
CGGGGTAATA	2.46
TCTGGTACGG	1.02
AAGCGGTTTG	0.993
ATAGAGGGGA	0.983
TTCGAGTTAC	1.2
GTTTGAACAA	0.981
TTTACATGGT	0.97
ATATGTACGA	1.04
TTGGCTAATG	1.01
CAAGCGGGAT	1.04
AATCTTTGTA	0.993
ATTTGTTTGA	0.945
ACGCCAGTTT	1.04

Sequence	switch fluorescence ratio
TTCGCGTTT	1.03
GTTCCTGGGA	1.04
TTGGGCCGTG	1.01
ACTGCAGAG	1
GTGATTATTC	1
GCGCATGCTG	1.06
ACCAGATAGT	1.03
GACTACTGCT	0.987
GATATTCGGC	1.01
ATTGTAGTTC	0.978
TATGTGGCTA	0.938
GCCCCTCATC	1.05
ACGTCAGTCT	0.999
TCATAGGTA	1.05
GAGAGGAATC	0.925
TGAAAGGGCG	1.01
CTGCACGAGC	1.11
TTGGTTTGAA	0.994
ACGGCGCCTT	0.994
CCACAGCATG	2.16
AGGACGAAAG	1.03
CGAACCGCAC	2.67

Sequence	switch fluorescence ratio
CGACTTTGAC	1.13
GGAAGCGTT	0.998
GGTGTAGGGC	1.08
TACTTAACTC	1.13
CGCGGAGCTA	1.11
CGCGGTAAAG	1
ATTCAAATTG	1.07
GCGACTGTGC	1.03
TAAGCTTGCT	1.02
CTACACTCCT	1.08
AAAGCGTGA	1
TGAAATTCTG	1.04
GCCATACGTC	1.14
ACATTTTTTA	0.967
GGTGTCTTGC	0.978
TGGTAATCAG	1
AAATTACCTG	1.01
GGCATCATGG	0.971
CAGCCAACTT	1.02

— the supplement of paper PMC10126150
